Hit rate of the full screen: of about 310,000 compounds, about 2,200 (0.71%) showed an effect of 50% or more. Effects have a minus sign here. This is one part of the list.
Target: human ether-à-go-go-related gene (hERG) potassium channel (human, UniProt Q12809)
Assay: primary screen, population patch clamp on CHO cells stably expressing hERG

Chain of human ether-à-go-go-related gene (hERG) potassium channel (Q12809 whole entry, looked up): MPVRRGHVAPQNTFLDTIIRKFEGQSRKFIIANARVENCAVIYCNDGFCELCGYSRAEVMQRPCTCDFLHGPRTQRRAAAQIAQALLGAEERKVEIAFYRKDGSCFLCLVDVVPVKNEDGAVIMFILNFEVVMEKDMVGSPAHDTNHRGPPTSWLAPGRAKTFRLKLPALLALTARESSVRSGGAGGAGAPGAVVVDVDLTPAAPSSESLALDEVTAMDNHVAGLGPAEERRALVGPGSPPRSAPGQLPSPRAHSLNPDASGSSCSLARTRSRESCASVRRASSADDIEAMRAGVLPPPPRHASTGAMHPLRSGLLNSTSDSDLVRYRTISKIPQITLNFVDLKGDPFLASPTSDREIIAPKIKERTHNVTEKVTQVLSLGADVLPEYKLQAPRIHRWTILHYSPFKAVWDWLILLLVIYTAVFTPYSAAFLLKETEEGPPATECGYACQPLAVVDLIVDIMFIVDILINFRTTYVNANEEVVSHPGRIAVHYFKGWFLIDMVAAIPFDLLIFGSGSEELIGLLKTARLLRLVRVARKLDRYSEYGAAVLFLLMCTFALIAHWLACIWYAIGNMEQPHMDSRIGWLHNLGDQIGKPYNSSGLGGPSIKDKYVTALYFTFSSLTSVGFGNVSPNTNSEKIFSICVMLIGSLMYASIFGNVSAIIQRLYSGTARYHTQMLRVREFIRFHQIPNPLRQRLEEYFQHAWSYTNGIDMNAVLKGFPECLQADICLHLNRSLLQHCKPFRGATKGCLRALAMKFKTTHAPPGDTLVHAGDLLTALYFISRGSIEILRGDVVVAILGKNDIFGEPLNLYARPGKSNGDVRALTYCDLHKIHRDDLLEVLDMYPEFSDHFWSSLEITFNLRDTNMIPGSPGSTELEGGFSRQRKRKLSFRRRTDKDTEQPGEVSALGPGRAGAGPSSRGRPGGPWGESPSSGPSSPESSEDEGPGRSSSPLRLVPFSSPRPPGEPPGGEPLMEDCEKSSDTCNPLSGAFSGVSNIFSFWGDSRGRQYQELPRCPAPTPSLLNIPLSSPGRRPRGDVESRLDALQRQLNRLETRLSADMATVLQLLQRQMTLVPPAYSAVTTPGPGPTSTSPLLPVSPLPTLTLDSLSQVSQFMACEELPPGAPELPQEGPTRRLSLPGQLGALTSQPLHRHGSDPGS

SMILES | hERG current change (%, negative = inhibition) at 1uM [%]
CC(=O)Nc1ccc(NC(=O)c2nc(-c3ccccc3)oc2C)cc1 | 22.6
Cl.O=C(Nc1cccc(C(F)(F)F)c1)c1cccnc1N1CCN(c2ccccc2)CC1 | 11.9
CCCCC(=O)N/N=C/c1ccc(Sc2cccc3cccnc23)o1 | -2.78
CN1C(=O)NC(c2ccc(O)cc2)C(C(=O)c2cccs2)C1(O)C(F)(F)F (centres unmarked) | -10.9
CC1=NNC(=O)C1CC(=O)N/N=C/c1ccncc1 (centres unmarked) | 9.92
N=C1C(c2ccccc2)=C(O)CN1c1cccc(S(=O)(=O)N2CCOCC2)c1 | 7.42
COc1ccc(S(=O)(=O)NCCC(C)C)cc1C | 4.62
COc1ccc(C2CC(c3ccccc3)Nc3nc(NC(=O)c4ccco4)nn32)cc1 (centres unmarked) | 2.75
CCCc1cc(C(=O)Nc2cnn(Cc3ccc(F)cc3)c2)no1 | 10.5
CCCCNC(=S)NNC(=O)C1=NN(c2cc(C)ccc2C)C(=O)CC1 | 12.3
CC1CN(S(=O)(=O)c2ccc(C(=O)N(CCCN(C)C)c3nc4cc5c(cc4s3)OCCO5)cc2)CC(C)O1.Cl (centres unmarked) | -3.66
COC(=O)C1=NN(C(=O)c2ccc(Cl)cc2)C(O)(c2ccccc2)C1 (centres unmarked) | 9.81
Cc1nc2scc(-c3cccs3)c2c(=O)n1N | -2.08
COc1ccc(N2CCN(C(=O)c3ccccc3NC(=O)C3=C(C)OCCS3)CC2)cc1 | 7.8
COc1ccc(C2/C(=C(/O)c3ccc(C)cc3)C(=O)C(=O)N2C)cc1 (centres unmarked) | -3.32
COc1cc(CCC(=O)N2CC(C)OC(C)C2)cc(OC)c1OC (centres unmarked) | 12.2
Cc1ccc2nc(SCC(=O)c3ccccc3)nc(=O)n2c1 | 11.3
CCOC(=O)c1sc2nc(SCC(=O)NCc3ccco3)n(Cc3ccccc3)c(=O)c2c1C | 16.7
CCn1c(N2CCN(CC(=O)c3c(C)n(C)c4ccc(OC)cc34)CC2)nc2c1c(=O)[nH]c(=O)n2C | 8.49
O=C(CSc1ccccc1)N(c1ccc(Br)cc1)c1nccs1 | 8.72
C=CCOc1cccc(C2C(C(=O)c3ccc(C)o3)=C(O)C(=O)N2Cc2ccncc2)c1 (centres unmarked) | 11.7
CN1C(=O)C(=Cc2ccc(N3CCCCCC3)cc2)C(=O)N(C)C1=O | 12.4

SMILES | hERG current change (%, negative = inhibition) at 1uM [%]
CC(C)OC(=O)c1nnc(-c2ccccc2)nc1OC(C)C | 2.17
NC(=O)c1ccccc1NC(=O)CSc1cn[nH]n1 | 10.4
COc1ccc(S(=O)(=O)Cc2ccc(C(=O)N3CCN(c4ccccn4)CC3)o2)cc1 | -15.8
COC(=O)c1onc(-c2ccccc2)c1C(=O)OC | 11.8
COC(=O)c1ccc(CSc2ccc3nnc(-c4ccc(OC)c(OC)c4)n3n2)o1 | -0.756
COc1ccccc1NC(=O)CCc1nc2ccccc2s1 | 6.84
O=C(O)Cn1ccc2cc(S(=O)(=O)N3CCCCCC3)ccc21 | 17
COc1ccc(S(=O)(=O)CCC(=O)Nc2c(C)cccc2C)cc1 | 16.3
N#Cc1nc(-c2ccco2)oc1NCc1ccc(F)cc1 | 7.5
CN1CCCN(Cc2ccccc2Br)CC1 | 14.7
COc1ccc(NC(=O)c2cc3ccccc3o2)cc1OC | 12
CCN(CC)CCCC(C)NC(=O)c1c(NC(=O)c2ccccc2)sc2c1CCCC2.O=C(O)C(=O)O (centres unmarked) | -31.6
COCCNC(=O)C(c1cccs1)N(C(=O)Cn1nnc2ccccc21)c1ccc2c(c1)OCO2 (centres unmarked) | -4.12
O=C(Cc1c(Cl)cccc1Cl)NCCc1ccc(Cl)cc1 | 10.3
C/C(=N\Nc1ccc2nncn2n1)c1cccs1 | 9.89
COc1ccc(/C=C/C(=O)NC(=S)NNC(=O)c2cc(OC)c(OC)c(OC)c2)cc1 | 15
COc1ccc(NC(=O)c2oc3ccccc3c2NC(=O)c2ccc3c(c2)OCO3)cc1 | 20.4
Cc1cc(C(N)=O)c2ccccc2n1 | 21.2
COc1ccc([N+](=O)[O-])cc1NC(=O)CS(=O)(=O)c1ccc(C)cc1 | 7.52
Cc1ccc(S(=O)(=O)N(C)CC(=O)OCC(=O)NC(=O)NC(C)C)cc1 | -0.686
Cc1ccc(C(=O)Nc2nnc(S(=O)(=O)N3CCOCC3)s2)cc1 | 15.6
C/C(=N\NC(=O)c1ccc(Br)cc1)C1C(=O)c2ccccc2C1=O | 18

Reference: article PMC4336329 (PLoS ONE, 2015)
